# Reference: PubChem BioAssay AID504832 (National Center for Advancing Translational Sciences (NCATS), 2011)
# The campaign covered roughly 310,000 compounds. About 18,000 (5.8%) were called active. The inconclusive results got no clear call from the source; some entries with a clear call stand among them for comparison. Calls follow the shape of the dose curve; as a rule, active = well fitted inhibition curve with a large enough effect; inconclusive = small, poorly fitted or top-dose-only effect, or another doubt; inactive = no such curve, though single readings can be large or run the other way. No potency is given beside an inconclusive call; the fits are too rough.
# Experiment: Primary qHTS for delayed death inhibitors of the malarial parasite plastid, 48 hour incubation
# Conditions: P. falciparum luciferase growth in erythrocytes; series mostly up to 28.7 µM; activity change, negative = inhibition: at the top concentration
# How it was run: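 Luciferase-expressing parasites in RBCs, 2% Hct / 0.1% parasitemia final; RPMI 1640 + 0.5% Albumax; 37 C, 5% CO2, one generation; luminescence read-out, lower signal = inhibition.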
# % is scaled to controls: 0 for no effect and ±100 for the full control effect; potency is read from the fitted curve at half-maximal effect; tags tell the direction and shape of the fitted curve.
Compound,Potency,"activity change, negative = inhibition"
O=C(Nc1ccncc1)Nc1ccc(F)c(Cl)c1,active: 3.29 µM,–
Cc1ccc(NS(=O)(=O)c2ccc(OCC(=O)N3CCN(C)CC3)cc2)cc1,"inconclusive [inhibitor, single point]",–
COc1ccc([C@]23Cc4cc(C#N)ccc4C(O2)C2=C(CC4(CCCCC4)OC2=O)O3)cc1,"inconclusive [inhibitor, full curve, poor fit]",–
CCOC(=O)c1sc(NC(=O)C2CC(=O)N(c3ccc4c(c3)OCCO4)C2)nc1C (stereo not drawn),"inconclusive [inhibitor, single point]",–
Cc1ccccc1NC(=O)N1CCN(S(=O)(=O)c2ccccc2)CC1,–,inactive: -1.99%
CC(C)n1c(NCc2nc3ccccc3n2C)nc2ccccc21,"inconclusive [inhibitor, partial curve]",–
O=C(C1CCN(S(=O)(=O)c2ccc3c(c2)OCCO3)CC1)N1CCc2ccccc21,"inconclusive [inhibitor, single point]",–
O=[N+]([O-])c1cccc(/C=N/NC2=NS(=O)(=O)c3ccccc32)c1,"inconclusive [inhibitor, single point]",–
O=S(=O)(c1ccc(Br)s1)N1CCNCC1,"inconclusive [inhibitor, full curve]",–
COc1cccc(CN2CCN(C(=O)C3CCC(=O)N(C4CCCC4)C3)CC2)c1 (stereo not drawn),"inconclusive [inhibitor, partial curve, poor fit]",–
CN(C)CCNC(=O)c1ccc(Sc2ccc(Br)cc2)c([N+](=O)[O-])c1,"inconclusive [inhibitor, single point]",–
Cc1ccc(-n2c(CSc3nc(C)cc(C)n3)nnc2SCC(=O)NCc2ccco2)cc1,"inconclusive [inhibitor, partial curve, poor fit]",–
COc1ccc(-c2nc(C#N)c(N3CCCCC3)o2)cc1,–,inactive: 19.4%
Cn1cccc1CNCC(O)c1ccccc1 (stereo not drawn),"inconclusive [inhibitor, partial curve, poor fit]",–
CCn1cc([N+](=O)[O-])c(C(=O)Nc2ccc(Br)cn2)n1,–,inactive: 35.4%
COc1ccc(C2=NOC(CNC(=S)N3CCOCC3)C2)cc1 (stereo not drawn),–,inactive: 66.8%
O=C(N/N=C/c1ccsc1)c1cc(-c2ccncc2)nc2ccccc12,"inconclusive [inhibitor, partial curve, poor fit]",–
O=C(C1Cc2ccccc2CN1S(=O)(=O)c1ccc(F)cc1)N1CCCCCC1 (stereo not drawn),"inconclusive [inhibitor, single point]",–
O=C1C2C(c3ccccc3)C=CC(c3ccccc3)C2C(=O)N1C1CCCCC1 (stereo not drawn),"inconclusive [inhibitor, partial curve, poor fit]",–
C/C=C/C(=O)Nc1cccc(C2=NOC3(C2)C[C@@H](C(N)=O)N(C(=O)C(c2ccccc2)c2ccccc2)C3)c1 (stereo partly drawn),active: 11.7 µM,–
CNc1ccc(SC#N)cc1,"inconclusive [inhibitor, partial curve]",–
O=C(CSc1nnc(Cn2c(=O)sc3ccccc32)n1-c1ccccc1)N1CCOCC1,"inconclusive [inhibitor, single point]",–
Cc1ccc(C(=O)NCC(=O)Nc2ccc3c(c2)CCC3)cc1C,–,inactive: 39.7%

Compound,Potency,"activity change, negative = inhibition"
CCN(CC)C(=O)c1c(-c2ccccc2)oc2ccc(OC)cc12,"inconclusive [inhibitor, full curve, poor fit]",–
COCCNC(=O)Cn1nc(-c2ccccc2OC)ccc1=O,–,inactive: 10.4%
CC(/C=N/n1cnnc1)=C\c1ccco1,"inconclusive [inhibitor, partial curve, poor fit]",–
CC(=O)Nc1ccc(NC(=O)C(OC(=O)c2ccccc2)C(OC(=O)c2ccccc2)C(=O)O)cc1 (stereo not drawn),–,inactive: 0.519%
CC(C)=Cc1oc2ccc([N+](=O)[O-])cc2c1N1CC(C)OC(C)C1 (stereo not drawn),–,inactive: 18.6%
Cc1nc(N2CCC(C)CC2)c2c(C)c(C(=O)Nc3cc(F)ccc3C)sc2n1,"inconclusive [inhibitor, single point]",–
COc1cccc(C(=O)Nc2ccccc2C(=O)NCC2CCCO2)c1 (stereo not drawn),–,inactive: 18.9%
CCOC(=O)C1(CCOC)CCN(Cc2cccc(OCc3ccccc3)c2)CC1,"inconclusive [inhibitor, partial curve, poor fit]",–
CCCCC[C@H](O)/C=C/[C@@H]1[C@@H](C/C=C\CCCC(=O)OC)[C@@H](O)C[C@H]1O,"inconclusive [inhibitor, partial curve]",–
CCOc1ccccc1N(C(=O)c1snc(C(N)=O)c1N)C(C(=O)NCC1CCCO1)c1ccc2ncccc2c1 (stereo not drawn),"inconclusive [inhibitor, partial curve]",–
CC(C)CC1NC(=O)N(CC(=O)Nc2ccccc2-c2ccccc2)C1=O (stereo not drawn),–,inactive: -28.1%
CCOC(=O)C1=C(C)NC(SCC(=O)Nc2cc(C)on2)=C(C#N)C1c1cccs1 (stereo not drawn),active: 10.4 µM,–
C/C(=N/NC(=O)c1cc(Cl)ccc1O)C12CC3CC(CC(C3)C1)C2,"inconclusive [inhibitor, single point]",–
Cc1cccc(S(=O)(=O)Nc2ccc(-c3cn4ccccc4n3)cc2)c1,–,inactive: 47.6%
Cc1cccc(NC2=Nc3ccccc3N3C2=Nc2c(c(C)nn2-c2ccccc2)C3c2ccc(O)c(O)c2)c1 (stereo not drawn),"inconclusive [inhibitor, full curve, poor fit]",–
CCOC(=O)c1ccc(NC2c3ncccc3C(=O)N2Cc2ccc(F)cc2)cc1 (stereo not drawn),"inconclusive [inhibitor, full curve, poor fit]",–
NC(CO)(CO)COCc1ccccc1,"inconclusive [inhibitor, single point]",–
O=C(NCc1cccnc1)c1cccc2c1C(=O)N(C1CCCCC1)C2,"inconclusive [inhibitor, single point]",–
CC1CCC(NC(=O)CN2C(=O)C3CC=CCC3C2=O)CC1 (stereo not drawn),–,inactive: -16.8%
C#CCOCCOCCOCCNc1nc(N2CCN(C(=O)[C@H]([C@@H](C)CC)n3cc([C@@H](N)CO)nn3)CC2)nc(N2CCN(C(=O)[C@H]([C@@H](C)CC)n3cc([C@@H](N)CO)nn3)CC2)n1,–,inactive: 63.5%
Cc1ccc(Cc2nc(-c3ccccn3)no2)cc1,–,inactive: 403%
COc1ccc(-c2oc(=O)n(C)c2-c2ccc(OC)cc2)cc1,"inconclusive [inhibitor, single point]",–
CCOC(=O)C1(Cc2cccc(OC)c2)CCN(Cc2ccc(C)s2)CC1,"inconclusive [inhibitor, partial curve, poor fit]",–

Compound,Potency,"activity change, negative = inhibition"
Cc1ccc(/C=C2\C(=O)NC(=O)N(CC3CCCO3)C2=O)s1 (stereo not drawn),–,inactive: 10.7%
Cc1occc1C(=O)Nc1ccc2c(c1)OCO2,–,inactive: 171%
COc1ccc(C(CNC(=O)c2c(C)nn(Cc3ccc(C)cc3)c2Cl)N2CCOCC2)cc1 (stereo not drawn),active: 10.4 µM,–
Cc1ccc(S(=O)(=O)N2CCC(C(=O)Nc3ccc(S(=O)(=O)N4CCCC4)cc3)CC2)cc1,active: 13.1 µM,–
COc1cccc2cc(C(C)N(CCCN3CCOCC3)C(=O)Nc3ccc(Cl)cc3)oc12 (stereo not drawn),"inconclusive [inhibitor, partial curve, poor fit]",–
CCOC(=O)N1CCN(C(=O)c2ccccc2CCc2ccccc2)CC1,"inconclusive [inhibitor, partial curve, poor fit]",–
CCOC(=O)CSc1nc2ccsc2c(=O)n1C1CCN(C(=O)OCC)CC1,"inconclusive [inhibitor, full curve, poor fit]",–
O=C(Nc1ccccc1Cl)NC1(C(=O)N2CCCCC2)CCCCC1,"inconclusive [inhibitor, single point]",–
CCN(CC)CCCN1C(=O)c2oc3ccccc3c(=O)c2C1c1cc(OC)ccc1OC (stereo not drawn),"inconclusive [inhibitor, single point]",–
COc1ccc(N2CCN(C(=O)C3COc4ccccc4O3)CC2)cc1 (stereo not drawn),–,inactive: 6.33%
O=C1OC(CC(=O)N(Cc2nnc(-c3ccc(Cl)cc3)o2)C2CC2)c2ccccc21 (stereo not drawn),"inconclusive [inhibitor, single point]",–
O=C(c1cccs1)N(c1ccc(Br)cc1)C1C=CS(=O)(=O)C1 (stereo not drawn),–,inactive: -13.5%
CCN(c1cccc(C(F)(F)F)c1)S(=O)(=O)c1ccc2c(c1)CCN2C(=O)C1CC1,"inconclusive [inhibitor, partial curve]",–
O=C(CC1CC2CCC1C2)OCC(=O)c1c[nH]c2ccccc12 (stereo not drawn),"inconclusive [inhibitor, partial curve]",–
COc1ccc(-c2nc3ccc(C(=O)N4CCC5(CC4)OCCO5)cc3nc2-c2ccc(OC)cc2)cc1,"inconclusive [inhibitor, partial curve]",–
COc1ccc(C(CCN(Cc2ccc(OC)c(OC)c2)C(=O)CCl)c2ccccc2)cc1 (stereo not drawn),active: 2.94 µM,–
CN=C1S/C(=C\c2ccc(SC)cc2)C(=O)N1C,–,inactive: 67.8%
COC(=O)c1c(NC(=O)c2ccco2)sc2c1CC(C)(C)NC2(C)C,–,inactive: -0.954%
Cc1cccc2c1NC(=O)C2(O)N1CCCC(C)C1 (stereo not drawn),"inconclusive [inhibitor, partial curve, poor fit]",–
Cc1c(C(=O)NCCN2C(=O)S/C(=C\c3cccnc3)C2=O)cccc1[N+](=O)[O-],active: 5.22 µM,–
O=c1cc2c(nn1Cc1ccc(Cl)cc1Cl)-c1ccccc1CC2,"inconclusive [inhibitor, single point]",–
Cc1ccc2nc(NC(=O)C3CCN(S(=O)(=O)c4cccc5nsnc45)CC3)sc2c1,"inconclusive [inhibitor, single point]",–
